Experimental data reported in paper PMC2896533 (Nucleic Acids Research, 2010).

Biological target: E. coli GyrB (DNA gyrase B subunit), full length (E. coli)
Assay: SEC

Row | binding result | Binder
1 | binds | E. coli GyrA(R580A), full length (enzyme) not shown
2 | binds | E. coli GyrA(P636A), full length (enzyme) not shown
